The supplement of paper PMC4967469
A lower IC50 marks a more sensitive line; a limit (>, <) means that the fit lies beyond the doses tested. AUC, from the same fit, is the share of area under the viability curve across the 256-fold dose range: 1 means no effect, lower means more sensitive. For part of these data: An inferred top dose was derived from the fitted curves, not read from the paper. For part of these data: Where an entry number is given, a second screen of the drug exists; the two often differ.

Assays:
Experiment in all cases: Viability of human cancer cell lines after 72 h of drug (GDSC screen)
[1] = compound: O=C(NC1CC1)c1cccc(-c2ccc3c(NC(=O)C4CC4)n[nH]c3c2)c1 [XMD13-2]; conditions: top dose 10.24 µM; top dose inferred
Experimental: (§1)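 Human cancer cell lines in 384-well plates, medium with 10% serum, drug for 72 h over a 256-fold dose range (nine 2-fold or five 4-fold steps up to the top dose). Adherent lines were fixed and stained with the nucleic acid dye Syto60, suspension lines read with resazurin; signal relative to control wells, capped at 0 and 100%. One two-parameter sigmoid per drug and line, fitted in a mixed model over all curves with the slope shared within a line.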

[2] = compound: CC1(C)CC(=O)c2c(C(F)(F)F)nn(-c3ccc(C(N)=O)c(N[C@H]4CC[C@H](O)CC4)c3)c2C1 [SNX-2112]; conditions: top dose 2.56 µM
Experimental: as §1

[3] = compound: CN(C)C/C=C/C(=O)Nc1cc2c(Nc3ccc(F)c(Cl)c3)ncnc2cc1O[C@H]1CCOC1 [Afatinib]
Experimental: as §1

[4] = compound: CN(c1ncccc1CNc1nc(Nc2ccc3c(c2)CC(=O)N3)ncc1C(F)(F)F)S(C)(=O)=O [PF-562271]; conditions: top dose 2.56 µM; top dose inferred
Experimental: as §1

[5] = top dose 10 µM, screen: GDSC drug entry 1377, top dose inferred
[6] = top dose 0.5 µM, screen: GDSC drug entry 1032

Cell Line | AUC [1] | IC50 [1] [µM] | AUC [2] | IC50 [2] [nM] | AUC [3, 5] | IC50 [3, 5] [µM] | AUC [4] | IC50 [4] [nM] | AUC [3, 6] | IC50 [3, 6] [µM]
HO-1-N-1 (head and neck, adherent) | 0.911 | > 10.2 | 0.744 | 746 | 0.617 | 1.27 | 0.897 | > 2560 | – | –
LS-411N (large intestine, adherent) | 0.941 | > 10.2 | 0.321 | 45 | 0.973 | > 10 | 0.948 | > 2560 | 0.955 | > 0.5
NCI-H2085 (lung adenocarcinoma, adherent) | 0.977 | > 10.2 | 0.724 | 733 | 0.955 | > 10 | 0.926 | > 2560 | – | –
HT-144 (melanoma, adherent) | 0.984 | > 10.2 | 0.969 | > 2560 | 0.968 | > 10 | 0.869 | > 2560 | – | –
769-P (kidney, adherent) | 0.973 | > 10.2 | 0.565 | 244 | 0.602 | 1.22 | 0.896 | > 2560 | – | –
RERF-GC-1B (stomach, adherent) | 0.942 | > 10.2 | 0.839 | 2040 | 0.954 | > 10 | 0.87 | > 2560 | – | –
COR-L105 (lung adenocarcinoma, adherent) | 0.91 | > 10.2 | 0.463 | 124 | 0.338 | 0.2 | 0.886 | > 2560 | – | –
GCT (soft tissue, adherent) | 0.989 | > 10.2 | 0.972 | > 2560 | 0.988 | > 10 | 0.919 | > 2560 | – | –
HCC38 (breast, adherent) | 0.889 | > 10.2 | 0.48 | 140 | 0.978 | > 10 | 0.977 | > 2560 | 0.983 | > 0.5
DMS-114 (small cell lung carcinoma, adherent) | 0.89 | > 10.2 | 0.528 | 193 | 0.916 | > 10 | 0.983 | > 2560 | 0.985 | > 0.5
CCRF-CEM (lymphoblastic leukaemia, suspension) | 0.737 | 2.66 | 0.167 | 19.8 | 0.979 | > 10 | 0.9 | 2350 | 0.972 | > 0.5
SU-DHL-8 (B-cell lymphoma, suspension) | 0.582 | 1.06 | 0.295 | 44.3 | 0.968 | > 10 | 0.937 | > 2560 | – | –
HCC1500 (breast, adherent) | 0.927 | > 10.2 | 0.91 | > 2560 | 0.979 | > 10 | 0.976 | > 2560 | 0.972 | > 0.5
ME-180 (cervix, adherent) | 0.788 | 4.71 | 0.505 | 165 | 0.793 | 4.79 | 0.978 | > 2560 | 0.83 | 0.332
MDA-MB-453 (breast, adherent) | 0.842 | 8.4 | 0.32 | 47.3 | 0.872 | > 10 | 0.95 | > 2560 | 0.967 | > 0.5
A204 (rhabdomyosarcoma, adherent) | 0.922 | > 10.2 | 0.554 | 234 | 0.88 | > 10 | 0.847 | > 2560 | – | –
HTC-C3 (thyroid, adherent) | 0.955 | > 10.2 | 0.794 | 1340 | 0.947 | > 10 | 0.886 | > 2560 | – | –
OSC-19 (head and neck, adherent) | 0.944 | > 10.2 | 0.708 | 636 | 0.696 | 2.28 | 0.932 | > 2560 | – | –
NCI-H510A (small cell lung carcinoma, semi-adherent) | 0.98 | > 10.2 | 0.715 | 611 | – | – | 0.902 | > 2560 | 0.98 | > 0.5

Cell Line | AUC [1] | IC50 [1] [µM] | AUC [2] | IC50 [2] [nM] | AUC [3, 5] | IC50 [3, 5] [µM] | AUC [4] | IC50 [4] [nM] | AUC [3, 6] | IC50 [3, 6] [µM]
HCC70 (breast, adherent) | 0.918 | > 10.2 | 0.762 | 897 | 0.962 | > 10 | 0.836 | 1660 | 0.965 | > 0.5
COLO-792 (melanoma, adherent) | 0.824 | 5.98 | 0.872 | 2370 | 0.987 | > 10 | 0.947 | > 2560 | – | –
H2591 (mesothelioma, adherent) | 0.939 | > 10.2 | 0.786 | 1480 | 0.886 | > 10 | 0.972 | > 2560 | – | –
NCI-H1355 (lung adenocarcinoma, adherent) | 0.971 | > 10.2 | 0.963 | > 2560 | 0.856 | > 10 | 0.951 | > 2560 | – | –
NCI-H196 (small cell lung carcinoma, adherent) | 0.988 | > 10.2 | 0.77 | 1020 | 0.987 | > 10 | 0.985 | > 2560 | – | –
A2780 (ovary, semi-adherent) | 0.844 | 7.75 | 0.23 | 25.4 | 0.978 | > 10 | 0.895 | > 2560 | 0.972 | > 0.5
PL18 (pancreas, adherent) | 0.985 | > 10.2 | 0.622 | 345 | 0.985 | > 10 | 0.889 | > 2560 | – | –
MDA-MB-175-VII (breast, adherent) | 0.983 | > 10.2 | 0.675 | 520 | 0.394 | 0.309 | 0.944 | > 2560 | 0.55 | 0.0435
KG-1 (acute myeloid leukaemia, suspension) | 0.715 | 2.39 | 0.445 | 115 | 0.973 | > 10 | 0.958 | > 2560 | – | –
LOXIMVI (melanoma, semi-adherent) | 0.971 | > 10.2 | 0.446 | 116 | 0.943 | > 10 | 0.963 | > 2560 | – | –
HCC1806 (breast, adherent) | 0.856 | 7.19 | 0.499 | 159 | 0.934 | > 10 | 0.946 | > 2560 | – | –
PANC-10-05 (pancreas, adherent) | 0.93 | > 10.2 | 0.707 | 735 | 0.892 | > 10 | 0.927 | > 2560 | – | –
TE-10 (oesophagus, adherent) | 0.935 | > 10.2 | 0.947 | > 2560 | 0.89 | > 10 | 0.901 | > 2560 | – | –
SW1463 (large intestine, adherent) | 0.9 | > 10.2 | 0.868 | > 2560 | 0.771 | 7.12 | 0.939 | > 2560 | – | –
LN-229 (glioma, adherent) | 0.985 | > 10.2 | 0.82 | 1470 | 0.952 | > 10 | 0.939 | > 2560 | 0.966 | > 0.5
H-EMC-SS (chondrosarcoma, adherent) | 0.959 | > 10.2 | 0.401 | 78.9 | 0.979 | > 10 | 0.908 | > 2560 | – | –
KOSC-2 (head and neck, adherent) | 0.974 | > 10.2 | 0.942 | > 2560 | 0.814 | 5.77 | 0.816 | 1500 | – | –
NCI-H1703 (lung adenocarcinoma, adherent) | 0.851 | > 10.2 | 0.733 | 869 | 0.959 | > 10 | 0.956 | > 2560 | 0.98 | > 0.5
HeLa (cervix, adherent) | 0.942 | > 10.2 | 0.874 | 2290 | 0.987 | > 10 | 0.948 | > 2560 | 0.989 | > 0.5

Cell Line | AUC [1] | IC50 [1] [µM] | AUC [2] | IC50 [2] [nM] | AUC [3, 5] | IC50 [3, 5] [µM] | AUC [4] | IC50 [4] [nM] | AUC [3, 6] | IC50 [3, 6] [µM]
Hs-578-T (breast, adherent) | 0.985 | > 10.2 | 0.963 | > 2560 | 0.981 | > 10 | 0.987 | > 2560 | 0.985 | > 0.5
ChaGo-K-1 (non-small cell lung carcinoma, adherent) | 0.952 | > 10.2 | 0.812 | 1660 | 0.979 | > 10 | 0.938 | > 2560 | – | –
TC-71 (Ewing sarcoma, adherent) | 0.891 | 8.43 | 0.264 | 39.3 | 0.973 | > 10 | 0.992 | > 2560 | – | –
SK-CO-1 (large intestine, adherent) | 0.986 | > 10.2 | 0.374 | 73.5 | 0.97 | > 10 | 0.92 | > 2560 | – | –
HPAF-II (pancreas, adherent) | 0.901 | > 10.2 | 0.622 | 384 | 0.901 | > 10 | 0.979 | > 2560 | – | –
P31-FUJ (acute myeloid leukaemia, suspension) | 0.982 | > 10.2 | 0.94 | > 2560 | 0.996 | > 10 | 0.995 | > 2560 | 0.996 | > 0.5
TCCSUP (bladder, adherent) | 0.961 | > 10.2 | 0.553 | 228 | 0.982 | > 10 | 0.976 | > 2560 | – | –
SK-MEL-28 (melanoma, adherent) | 0.961 | > 10.2 | 0.919 | > 2560 | 0.956 | > 10 | 0.988 | > 2560 | – | –
L-1236 (Hodgkin lymphoma, suspension) | 0.981 | > 10.2 | 0.34 | 62.4 | 0.992 | > 10 | 0.969 | > 2560 | 0.992 | > 0.5
IST-MES1 (mesothelioma, adherent) | 0.956 | > 10.2 | 0.916 | > 2560 | 0.974 | > 10 | 0.962 | > 2560 | – | –
OVCAR-8 (ovary, adherent) | 0.949 | > 10.2 | 0.255 | 34.8 | 0.944 | > 10 | 0.958 | > 2560 | 0.976 | > 0.5
ML-1 (thyroid, adherent) | 0.947 | > 10.2 | 0.789 | 1340 | 0.962 | > 10 | 0.841 | 2230 | – | –
NCI-H2110 (non-small cell lung carcinoma, adherent) | 0.977 | > 10.2 | 0.314 | 47.7 | 0.899 | > 10 | 0.929 | > 2560 | 0.862 | 0.445
SNU-C2B (large intestine, adherent) | 0.894 | > 10.2 | 0.436 | 101 | 0.863 | > 10 | 0.942 | > 2560 | 0.897 | > 0.5
786-0 (kidney, adherent) | 0.854 | 7.06 | 0.409 | 92.2 | 0.953 | > 10 | 0.881 | 2300 | – | –
BCPAP (thyroid, adherent) | 0.87 | 8.08 | 0.423 | 101 | 0.988 | > 10 | 0.788 | – | – | –
RT-112 (bladder, adherent) | 0.883 | > 10.2 | 0.35 | 59.5 | 0.983 | > 10 | 0.796 | 1300 | – | –
SN12C (kidney, adherent) | 0.977 | > 10.2 | 0.849 | 2300 | 0.901 | > 10 | 0.905 | > 2560 | – | –
MES-SA (uterus, adherent) | 0.965 | > 10.2 | 0.99 | > 2560 | 0.978 | > 10 | 0.845 | 1460 | 0.992 | > 0.5
